Test results published in PubChem BioAssay AID1963318 (National Center for Advancing Translational Sciences (NCATS), 2024).
The campaign covered roughly 1,300 compounds. About 100 (7.7%) were called active. Inconclusive results, whose numbers are uncertain, are shown with a selection of clear calls. Calls follow the shape of the dose curve; as a rule, active = well fitted activation curve with a large enough effect; inconclusive = small, poorly fitted or top-dose-only effect; inactive = no such curve, though single readings can be large or run the other way. Where the call is inconclusive, the potency comes from a doubtful curve fit.

Target: Luciferin 4-monooxygenase (Photinus pyralis) (UniProt P08659)
Assay: Firefly luciferase (FLuc-C-HiBiT) SDR gain of signal screen - without ATP; also: nearly all actives have a fitted effect of over 55% in size
Conditions: Purified FLuc-C-HiBiT, Nano-Glo HiBiT luminescence, no ATP; series mostly up to 32.7 µM; activation (signal gain): at the top concentration
In short: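 Ligand-target engagement detected as increased HiBiT complementation luminescence from 10 nM FLuc-C-HiBiT lacking ATP, after >30 min compound exposure and 5-10 min with Nano-Glo HiBiT reagent at room temperature.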
Potency is read from the fitted curve at half-maximal effect; tags tell the direction and shape of the fitted curve.

UniProt P08659, sequence (P08659 whole entry, looked up): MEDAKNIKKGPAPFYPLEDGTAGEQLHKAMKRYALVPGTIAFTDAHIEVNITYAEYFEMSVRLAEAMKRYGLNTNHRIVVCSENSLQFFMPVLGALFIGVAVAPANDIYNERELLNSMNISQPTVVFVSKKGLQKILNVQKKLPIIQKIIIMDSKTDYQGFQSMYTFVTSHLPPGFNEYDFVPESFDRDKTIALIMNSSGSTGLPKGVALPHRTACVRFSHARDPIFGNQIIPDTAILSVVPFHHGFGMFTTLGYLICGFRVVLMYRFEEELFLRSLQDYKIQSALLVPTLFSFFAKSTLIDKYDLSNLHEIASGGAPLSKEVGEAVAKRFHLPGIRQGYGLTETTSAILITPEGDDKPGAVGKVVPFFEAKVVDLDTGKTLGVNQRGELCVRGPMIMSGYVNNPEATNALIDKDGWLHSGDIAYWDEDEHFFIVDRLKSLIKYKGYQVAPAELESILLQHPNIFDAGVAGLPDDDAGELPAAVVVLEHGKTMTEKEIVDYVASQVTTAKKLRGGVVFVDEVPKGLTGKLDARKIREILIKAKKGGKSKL

Potency, inconclusive:
COc1ccc(-c2nc3ncccc3[nH]2)cc1 28.5 µM [activator, partial curve], COc1ccc(NC(=O)N2CCc3c(C(=O)NCCN4CCCCCC4)cccc32)cc1 22.1 µM [activator, partial curve, poor fit], COc1ccc(-n2nc(C)c([C@@H]3C=C[C@@H](NC(=O)NCc4ccccc4)C3)c2C)cc1 22.7 µM [activator, partial curve, poor fit], O=C(Nc1cccc(-c2ccc(N3CCOCC3)nn2)c1)Nc1ccccc1F 14 µM [activator, partial curve], O=C1NCCCc2[nH]c(-c3cc(-c4cccc(F)c4)no3)nc21 15.7 µM [activator, single point], Clc1ccc(-n2ncc3c(NC4CCCC4)ncnc32)cc1 14 µM [activator, partial curve, poor fit], Cc1cccc(NC(=O)N2CCc3c(C(=O)NC(C)(C)C)cccc32)c1 22.1 µM [activator, single point], CCOc1cccc2cc(-c3nc(-c4ccccc4C)no3)c(=O)oc12 12.4 µM [activator, partial curve], COc1cccc(CC(=O)NCCn2ccn3nc(-c4ccc(C)cc4C)cc3c2=O)c1 14 µM [activator, partial curve, poor fit], O=C(O)c1ccc(-c2noc(-c3ccc(Cl)cc3)n2)cc1 19.7 µM [activator, partial curve, poor fit], Cc1ccc(-c2cc3c(=O)n(CCNC(=O)C4CCCCC4)ccn3n2)c(C)c1 5.56 µM [activator, partial curve], C[C@@H]1C(=O)O[C@H]2[C@H]1CC[C@@]1(C)Cc3sc(NCc4ccccc4)nc3[C@@H](C)[C@H]21 25.5 µM [activator, partial curve, poor fit], Cc1csc(NC(=O)c2nc3c(o2)CCN(Cc2ccccc2F)CC3)n1 25.5 µM [activator, partial curve, poor fit], CCn1ncc(NC(=O)Cn2ncc3cc(-c4ccc(N(C)C)cc4)ccc32)n1 9.89 µM [activator, partial curve], Fc1ccc(-c2cn3cc(Cc4ccccc4)sc3n2)cc1 1.76 µM [activator, full curve], CC(C)(Oc1ccc(-c2nc3cc(Cl)ccc3s2)cc1)C(=O)O 9.89 µM [activator, partial curve, poor fit], O=C(Nc1ccc(F)cc1)Nc1cccc(-c2ccc(N3CCOCC3)nn2)c1 3.51 µM [activator, partial curve, poor fit], CN(Cc1cnn(C)c1)C(=O)c1csc2nc(-c3ccc(C(F)(F)F)cc3)cn12 12.4 µM [activator, partial curve, poor fit], Nc1ccc(C(=O)N2CCCn3nc(C(=O)Nc4ccccc4)cc3C2)cn1 12.4 µM [activator, partial curve, poor fit], Cc1ccc(-n2ncc3c(N4CCCCCC4)ncnc32)cc1Cl 11.1 µM [activator, partial curve], c1ccc(-c2noc(-c3ccc(OC4CNC4)cc3)n2)cc1 12.4 µM [activator, partial curve], CC1(NC(=O)C2CC2)CN(Cc2nc(-c3cccc(F)c3)cs2)C1 36 µM [activator, partial curve, poor fit], O=C(O)c1ccc(-c2nnc3ccc(NC(=O)C4CCC4)cn23)cc1 14 µM [activator, partial curve, poor fit], COc1ccccc1NC(=O)Cn1c(C)ccc(NC(=O)Nc2ccc(C)cc2)c1=O 9.89 µM [activator, partial curve], COc1ccc(-c2cc3c(cn2)CN(Cc2cccnc2)CCN3)cc1OC 22.7 µM [activator, partial curve, poor fit], Brc1ccc(-c2nc(-c3ccccn3)no2)o1 5.56 µM [activator, partial curve], COc1ccc2cc(C3CN(C(=O)c4cccc(CO)c4)CCO3)ccc2c1 (centres undefined) 12.4 µM [activator, partial curve], O=C(O)c1ccc(-c2noc(-c3cccc(Cl)c3)n2)cc1 19.7 µM [activator, partial curve, poor fit], Cc1ccc(C(=O)Nc2cccc(C(=O)O)c2)cc1S(=O)(=O)N1CCCC1 12.4 µM [activator, partial curve]

Potency, active:
COc1cccc2cc(C(=O)Nc3ccc(CC(=O)O)cc3)c(=O)oc12 2.48 µM, Cc1ccc(-n2ncc3c(N4CCCCCC4)ncnc32)cc1 1.76 µM, OCC1CCCN(c2ncnc3c2cnn3-c2ccccc2)C1 (centres undefined) 1.76 µM, COc1ccc2nc(-c3cccc(C(C)=O)c3)sc2c1 12.4 µM, C[C@@H]1C(=O)O[C@H]2[C@H]1CC[C@@]1(C)Cc3sc(Nc4cccnc4)nc3[C@@H](C)[C@H]21 1.01 µM, CC(C)(C)C(=O)Nc1ccc(-c2nc3ccccc3s2)cc1 0.0785 µM, CC1CCCN(c2ncnc3c2cnn3-c2ccc(Cl)cc2)C1 (centres undefined) 2.79 µM, Cc1ccc(/C=C/c2nc3ccccc3n2S(=O)(=O)c2cccc(Cl)c2)cc1 0.556 µM, Clc1cccc(-n2ncc3c(N4CCCCC4)ncnc32)c1 6.24 µM

Activation (signal gain), inactive:
COc1ccc(-c2cc(N3CCCC(NC(=O)c4ccc5ncccc5c4)C3)n[nH]2)cc1 (centres undefined) 11.4%, CCOc1ccc(NC(=O)C2CCN(C(=O)c3ncn4c3COC(c3ccccc3)C4)CC2)cc1 (centres undefined) 13.5%, Oc1ccc(-c2nc3ccccn3c2Nc2ccc3c(c2)OCCO3)cc1 21.4%, OC(c1nc(Nc2ccc(Oc3ccccc3)cc2)n[nH]1)C1CC1 (centres undefined) 17.3% [at 49.3 µM], COc1cc(Cl)ccc1-c1ccc(COc2ccc3c(cnn3CCC(=O)O)c2)cc1 9.12% [at 49.3 µM], Cc1ccc(NC(=O)C2CCN(C(=O)c3ncn4c3COC(c3ccccc3)C4)CC2)cc1C (centres undefined) 13.7%, COc1cccc(CNC(=O)N2c3ccccc3CC2c2noc(C3CCOCC3)n2)c1 (centres undefined) 13.7%, O=C(NCc1ccco1)C1CCN(C(=O)c2ncn3c2COC(c2ccccc2)C3)CC1 (centres undefined) 15.3%, O=C(NCCc1ccccc1)C1CCN(C(=O)c2ncn3c2COC(c2ccccc2)C3)CC1 (centres undefined) 10.6%, O=C(Nc1ccccc1)c1nc2c(o1)CCN(Cc1ccccc1)CC2 27% [at 49.3 µM], Cc1ccc(C)c(N2CCN(C(=O)c3ccc(NC(=O)c4nsc5ccccc45)cc3)CC2)c1 16.5%
